Data published in article PMC4336329 (PLoS ONE, 2015).
Hit rate of the full screen: of about 310,000 compounds, about 2,200 (0.71%) showed an effect of 50% or more. The effect is printed as a negative number. The list shows a part of the results.

The compounds below were run against human ether-à-go-go-related gene (hERG) potassium channel (human, UniProt Q12809) (assay: primary screen, population patch clamp on CHO cells stably expressing hERG).
Chain of human ether-à-go-go-related gene (hERG) potassium channel (Q12809 whole entry, looked up): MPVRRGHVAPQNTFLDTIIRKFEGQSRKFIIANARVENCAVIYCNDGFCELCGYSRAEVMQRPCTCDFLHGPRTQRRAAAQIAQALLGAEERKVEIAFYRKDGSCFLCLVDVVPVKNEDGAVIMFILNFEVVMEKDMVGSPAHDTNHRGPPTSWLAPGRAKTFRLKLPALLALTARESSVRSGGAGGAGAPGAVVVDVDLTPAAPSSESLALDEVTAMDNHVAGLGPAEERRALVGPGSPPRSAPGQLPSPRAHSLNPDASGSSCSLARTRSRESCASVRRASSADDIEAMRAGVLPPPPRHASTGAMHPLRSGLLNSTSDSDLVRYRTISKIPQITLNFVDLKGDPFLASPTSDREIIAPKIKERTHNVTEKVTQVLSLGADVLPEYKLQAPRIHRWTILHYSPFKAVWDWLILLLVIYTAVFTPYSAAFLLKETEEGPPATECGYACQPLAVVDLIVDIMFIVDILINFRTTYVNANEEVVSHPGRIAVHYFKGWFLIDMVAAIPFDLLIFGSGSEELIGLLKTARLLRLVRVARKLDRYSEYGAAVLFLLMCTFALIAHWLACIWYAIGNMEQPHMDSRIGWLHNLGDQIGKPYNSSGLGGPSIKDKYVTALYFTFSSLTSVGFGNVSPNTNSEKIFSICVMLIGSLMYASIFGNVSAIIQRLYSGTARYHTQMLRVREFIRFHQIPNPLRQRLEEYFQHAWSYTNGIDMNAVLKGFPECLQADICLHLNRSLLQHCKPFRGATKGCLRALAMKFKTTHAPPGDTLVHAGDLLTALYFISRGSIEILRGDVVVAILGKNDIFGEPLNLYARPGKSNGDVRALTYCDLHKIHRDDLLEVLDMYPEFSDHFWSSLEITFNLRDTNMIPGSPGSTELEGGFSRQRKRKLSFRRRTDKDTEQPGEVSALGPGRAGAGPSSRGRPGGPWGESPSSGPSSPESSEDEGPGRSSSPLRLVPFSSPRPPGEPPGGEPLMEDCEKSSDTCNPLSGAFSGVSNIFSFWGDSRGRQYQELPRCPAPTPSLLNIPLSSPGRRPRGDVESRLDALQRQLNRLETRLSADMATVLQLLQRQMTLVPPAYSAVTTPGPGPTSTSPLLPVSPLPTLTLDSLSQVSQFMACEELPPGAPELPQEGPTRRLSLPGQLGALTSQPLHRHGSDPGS

Row | SMILES | hERG current change (%, negative = inhibition) at 1uM
1 | Cc1ccccc1-c1ncc(CN2CCN(C3CCCCC3)C(CCO)C2)cn1 (centres unmarked) | -6.66%
2 | CCCn1nnnc1SCC(=O)Nc1sc(C)c(C)c1C#N | 8.83%
3 | CCN(CC)CCNC(=O)CS(=O)Cc1nc(-c2ccc(Cl)cc2)oc1C (centres unmarked) | -5.6%
4 | O=C(CCCn1c(=S)[nH]c2cc3c(cc2c1=O)OCO3)NCc1ccccc1Cl | 14%
5 | S=C1CN=C(c2ccccc2Cl)c2cc(Cl)ccc2N1 | 8.44%
6 | C=CCn1c(=O)n(CCOC)c(=O)c2sc3ccccc3c21 | 0.14%
7 | CC(C)[C@H](NC(=O)N1c2ccccc2NC(=O)[C@@H]1C(C)C)C(=O)N[C@@H](C(=O)O)c1ccccc1 | 13%
8 | CCc1ccc(-c2cc(C(F)(F)F)n3nc(C(=O)Nc4cnn(Cc5ccccc5C)c4)cc3n2)s1 | 11.3%
9 | O=C(Cc1cccc(C(F)(F)F)c1)Nc1ccccc1N1CCCC1 | 1.28%
10 | COC(=O)c1c(C)[nH]c(C(=O)C(C)OC(=O)C2=NNC(=O)CC2)c1C (centres unmarked) | 3.65%
11 | O=C(O)[C@H]1CCCN1C(=O)c1ccccc1N1C(=O)[C@@H]2Cc3c([nH]c4ccccc34)C(c3cccc(Cl)c3)N2C1=O (some centres unmarked) | 8.94%
12 | C/C(=N\NC(N)=O)c1ccccc1 | 24%
13 | COc1ccc(-n2cnnc2SC(C)C(=O)Nc2cccc([N+](=O)[O-])c2)cc1 (centres unmarked) | -16%
14 | Cc1cc(C)cc(N2C(=O)NC(=O)/C(=C/c3cccn3-c3ccc(Cl)cc3)C2=O)c1 | 11.8%
15 | CC(C)C(=O)NNC(=O)c1ccccn1 | 12.3%
16 | OCCC1CN(CC#Cc2ccccc2)CCN1Cc1ccccc1F (centres unmarked) | 11.1%
17 | COc1ccc(-n2c(-c3ccco3)nc3c(cnn3-c3ccccc3C)c2=O)cc1 | 5.76%
18 | CN(C)c1ccc(/C=C(\C#N)c2ccccn2)cc1 | 2.79%
19 | Nc1ccc(C(=O)N2CCCC2)cc1CS(=O)(=O)c1ccc(Cl)cc1 | 7.63%
20 | Cc1ccc2c(c1)/C(=N/N1C(=O)c3ccccc3C1=O)C(=O)N2 | 10.3%
21 | CCc1n(CC(O)COCc2ccccc2)c2ccccc2[n+]1C.[I-] (centres unmarked) | 6.34%
22 | CCCCn1c(N)c(N(CCOC)C(=O)COC(=O)COc2ccc(CC)cc2)c(=O)[nH]c1=O | 3.58%

Row | SMILES | hERG current change (%, negative = inhibition) at 1uM
23 | CCN1CCN(CC(O)COCc2cc(OC)c(OC)c(OC)c2)CC1.Cl (centres unmarked) | 15.6%
24 | CCN1CCN(Cc2nc3c(c(=O)n(C)c(=O)n3C)n2Cc2cccc3ccccc23)CC1 | -8.57%
25 | CC(Sc1nc(-c2ccccc2)cc(C(F)(F)F)n1)C(=O)N1CCC(C(N)=O)CC1 (centres unmarked) | -1.28%
26 | CCOCCCNC(=O)C(NC(=O)c1ccccc1O)c1ccc(Cl)cc1 (centres unmarked) | 14.7%
27 | Cc1ccc(-c2nnc(SCC(=O)O)n2N)cc1 | 4.19%
28 | Cc1ccc(SCC(=O)Nc2ccc(S(N)(=O)=O)cc2)cc1 | 10.5%
29 | CCCCn1nnc(NC(=O)c2ccco2)n1 | 12.1%
30 | CC(C)NC(=O)NC(=O)CSc1nncs1 | 13.5%
31 | CN(Cc1c(C(=O)N/N=C/c2cccs2)nnn1-c1nonc1N)c1ccccc1 | 7.76%
32 | CC(=O)N1CCCc2ccc(NS(=O)(=O)c3ccc(C)cc3)cc21 | 5.39%
33 | O=C1C2CCCN2C(=O)N1CCCCN1CCN(c2cccc(C(F)(F)F)c2)CC1 (centres unmarked) | -9.12%
34 | CCOCCCNCc1ccc(OC)cc1.O=C(O)C(=O)O | 12.4%
35 | O=C(Cn1nnc(-c2ccc(NC(=O)c3ccccc3F)cc2)n1)NCc1ccc(F)cc1 | -2.01%
36 | Cc1c(O)ccc(C(=O)CN2CCN(c3ccccc3F)CC2)c1O | 16.2%
37 | O=C(CSc1ccc2nnc(-c3ccccn3)n2n1)NCc1ccco1 | -28.9%
38 | CC1(C)C(=O)Nc2ccccc2N1C(=O)COC(=O)CSc1ccc(Cl)cc1 | 13.6%
39 | COc1cccc2c1OC1(C)CC2NC(=O)N1 (centres unmarked) | -4.29%
40 | Cc1cc(C)c(OCC(=O)OCC(=O)NCC2CCCCC2)c(C)c1 | 10.2%
41 | Cc1cc(F)ccc1NC(=O)c1cc(S(=O)(=O)N2CCc3ccccc32)cn1C | -5.75%
42 | CCn1c(NC(=O)c2cccc(Cn3cc(Cl)cn3)c2)nc2ccccc21 | -2.58%
43 | CC(C)CC(=O)Nc1cccc(C(C)O)c1 (centres unmarked) | 9.91%
44 | O=C1NC(=O)c2cc(NC(=O)C3CCCCC3)ccc21 | 0.799%
